Measurements published in the supplement of paper PMC3334620.
Whole data set: some 33,000 sequences, median “E-score (-0.5 to 0.5)” near -0.036, cut for the highest 2% near 0.37. The list shows a part of the results.

biological target: T1, Yer064c (UniProt P40041); test: PBM E-score (8-mer binding enrichment) (E-score (-0.5 to 0.5)); higher = stronger / more preferred TF binding; most listed sequences are background and not binding sites; conditions: protein concentration: 200 nM; construct: GST-full length
T1 sequence: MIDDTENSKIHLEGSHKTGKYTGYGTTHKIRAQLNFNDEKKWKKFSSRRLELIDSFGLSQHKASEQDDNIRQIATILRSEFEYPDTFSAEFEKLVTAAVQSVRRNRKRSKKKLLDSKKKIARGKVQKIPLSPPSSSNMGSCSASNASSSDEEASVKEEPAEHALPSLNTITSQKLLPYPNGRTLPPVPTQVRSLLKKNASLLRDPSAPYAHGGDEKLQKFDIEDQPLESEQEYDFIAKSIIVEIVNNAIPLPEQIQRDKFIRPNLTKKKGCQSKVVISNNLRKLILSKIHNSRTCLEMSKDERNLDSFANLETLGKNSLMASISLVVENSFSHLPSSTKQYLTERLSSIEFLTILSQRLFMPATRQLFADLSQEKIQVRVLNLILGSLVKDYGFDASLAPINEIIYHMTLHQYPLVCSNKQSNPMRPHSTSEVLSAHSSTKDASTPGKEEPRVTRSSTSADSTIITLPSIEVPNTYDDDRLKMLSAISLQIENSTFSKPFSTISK
Procedure: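 Universal 'all 10-mer' protein binding microarrays (Agilent AMADID 015681) probed with GST-tagged S. cerevisiae TFs (full-length or DBD) made by in vitro transcription/translation (PURExpress), about 100-200 nM. Bound TF was detected with fluorescent anti-GST. Each ungapped 8-mer (which stands for itself and its reverse complement) is scored by the PBM enrichment score (E-score), a modified Wilcoxon-Mann-Whitney statistic from -0.5 to +0.5, computed with the Universal PBM Analysis Suite. Scale: above 0.35 generally sequence-specific binding.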

Sequence	PBM E-score
AGGGCGGC	-0.24
CTATGAAA	0.0225
ATATAACA	-0.0233
GACACCTA	-0.0466
GTTCATAA	0.0537
AATCTACC	0.00667
GTCTGTTA	-0.0206
AGGTACTG	-0.04
GGGACCAC	-0.023
ACGGAGAT	0.0115
AGCCGATG	-0.0329
AAATTAAC	0.0295
ATTAGACA	0.171
TTTCGAAA	0.154
TATTACGA	-0.0171
CCTCGTTC	-0.258
ATCAAACA	0.164
AATCCCAA	-0.233
ATATTGAT	0.093
CGGGGCCA	-0.249
CACACCTA	0.0389
ACGCATAT	-0.225
ACTGGCAT	-0.026
CAATTATG	-0.00919
CGGCTCAG	0.0602

Sequence	PBM E-score
CATGATAA	0.12
TGTAGACA	0.0684
CTCGGAAC	-0.012
ATCGTGTA	0.0855
ACGCATAG	-0.169
CTGTTCTA	-0.0779
GCATGTCC	-0.285
ACGCATCT	-0.0617
CAGTCGCA	0.15
ACCGAATC	0.0404
ACAAGCGC	-0.201
CTGCCACC	-0.206
ATTTTTGA	0.0961
AAGTGGTA	-0.0878
AAGAAATG	-0.0578
CCTCACCA	-0.134
AGGGCTCG	-0.284
ACCGAGGG	-0.323
CCCGGGTC	-0.198
AGCGCGGC	-0.245
CGGGTAAA	0.0546
CTACTCTA	0.159
ATTTGGTA	0.0742
GATCTGAC	0.147
CGATTAAA	0.249

Sequence	PBM E-score
AGCGTTCC	-0.147
CTATTGAG	0.262
GATTAATC	0.391
CATCCTCG	-0.202
ATATTATG	0.0717
GTCGCTAA	0.18
ATATGCAA	-0.11
AACTATTA	-0.00806
CTGGTCCC	-0.303
CCAACGAG	-0.121
ACTTAATG	0.204
ATTATTTC	0.0626
AAGTAATT	0.151
AGGCCGTG	-0.108
CACAACGC	-0.121
CCTCCCAG	-0.431
AGTAGCTA	-0.119
CTATCCAG	-0.114
GAATGCGA	-0.135
GTTTCGGA	-0.0974
GGTAGCAC	-0.158
AGCATACA	-0.152
CTCAAGCC	0.0764
CGGTGGAG	-0.234
CGGCCGAA	-0.0494

Sequence	PBM E-score
GAGAGAGC	-0.143
AGCCTTAT	-0.104
GACGGACA	-0.0475
GGGATCAA	-0.115
ATTGTCTC	-0.116
TACTGTAA	-0.0235
CGCCATGA	0.174
TGAAACCA	0.0456
CAACTCGA	0.0939
CTATAGTA	0.0624
AGTAGGCG	-0.0693
ACGACTGA	0.321
ATTTCAAA	0.129
CCTCCGCC	-0.173
GGTGGGAA	-0.0925
CACGCGCA	-0.152
AATAGCTG	-0.0714
CGAGATGC	0.0291
ATCCTTGA	0.0259
ATATCAGG	-0.00963
AATTTCCG	-0.0994
GGGACCCA	-0.0528
ACCCTCAA	-0.0132
AGACGTGA	0.175
CCGATAGG	-0.111

Sequence	PBM E-score
AACTGAGC	-0.121
CGTCATGC	-0.173
ATCAATGG	0.176
GTTTGTGA	0.125
AGACATGG	0.208
AGGAGAAT	-0.0387
ACTGCCAA	0.148
AGTTGATC	0.0925
AGAATATC	-0.0764
ACGAACGA	0.00195
AAGGTCTC	-0.0115
GCAACGAA	-0.0398
ATCTAAAC	-0.0015
TTCGCAAA	-0.00849
AACCCCTG	-0.0959
AATTGATG	0.128
ATGACGTC	0.116
AACAGGTT	-0.0668
AGTTCATG	0.215
CAATCAGC	0.317
CATGCGCC	-0.196
AATTGCAA	-0.15
CCCAGCGC	-0.071
AACAAAAC	-0.102
ACCGACTG	0.00611

Sequence	PBM E-score
ATAACAGA	0.0464
CAGTAGGA	-0.145
CACCGGTC	-0.0816
AGGGTTGA	0.147
AAATCCTT	-0.0617
TACCGGCA	0.0388
CTCGAATC	0.187
CCCGGGCA	0.029
AGACCGGG	-0.232
ACGCAAGG	-0.0851
CATGTCCG	-0.312
AGCGCTAG	-0.0217
CTACCTCA	0.027
CCTTCAGA	-0.112
CCGGACGA	-1e-05
CACACGCG	-0.0582
AATCTTCC	0.0855
GAGATTCC	-0.152
AGAAGTCT	0.148
ATGTTAGG	-0.0737
ATCTAATG	-0.0531
CCATTAGA	-0.0406
AGAACACC	-0.221
CTACATTA	-0.199
CACAAACA	0.0738

Sequence	PBM E-score
ACACAAGA	0.0726
ATTACGAC	0.209
GAGTCCCA	0.311
AGTTAGGG	-0.218
AAACTTAA	0.096
CCCGTTCC	-0.205
AATAGGAG	-0.113
GACGCAGC	-0.352
TAGAAAGA	0.113
ACTAGGAG	0.13
AGAAGCGC	-0.141
AATTGAAG	-0.0108
ACTCTTAC	0.304
CGGTCCGA	-0.0061
AAGTGTAG	-0.0192
AAAAAGTG	0.0196
GTGTACGA	0.0297
ACAAGCAC	-0.145
CCTGAAAA	-0.0854
ATAGTGAT	0.139
GCCCAGAC	-0.355
CCGGTCGC	-0.0954
AATAAGTA	-0.00487
ATCTTTCA	-0.0692
AGTCTTGC	0.291

Sequence	PBM E-score
AGTCCAAC	0.108
GGGGTTCA	-0.156
AGATTTGA	0.171
GCGCCCTA	-0.186
AAGCCCTT	-0.102
AGGGGACG	-0.313
CATACCCA	0.124
CTGGTTCA	0.108
AGAACAAC	-0.259
CGACACTA	-0.0389
CATTTATA	0.176
GCCGTGGA	-0.134
AGTAAAAT	0.199
ATTGGAAA	-0.0751
AACCACAC	0.0277
TATCAATA	-0.0261
GTACCTTA	0.0141
CAATGCAA	-0.0727
GCCTAACA	0.00393
CTGACAGA	0.0357
CGGAGACC	-0.18
CTATTAAG	-0.0862
TCACGGAA	0.0488
AGCCGCCA	0.00272
CGGGCTCA	-0.131

Sequence	PBM E-score
AAGCATCC	-0.42
GTGTTACA	0.0612
GACGACAA	0.0426
AAACGCTA	0.00495
AGGCGATA	-0.126
GCCGTAGC	-0.273
CGTCAGAG	-0.136
ATGTCCCG	-0.154
GGGCCTAC	-0.327
CACTGGCG	-0.0189
CCTACAAA	-0.0658
GCACCACC	-0.429
AGACCCGG	-0.0102
CGGTGAGA	0.094
ACCCGAGA	-0.0768
ACTGTGCT	-0.0468
CAATACAC	0.0718
AAGCCGAA	0.0789
ACTGACTA	0.447
